Test results from PubChem BioAssay AID1625 (Sanford-Burnham Center for Chemical Genomics, 2009).
The other results are listed elsewhere or left out. These are further read-outs of the screen, such as a control signal, another cell line or another target. No call is given for them. The list favours compounds with an active or inconclusive main result.

experiment: insulin promoter activators in MIN6 cells, imaging, high-content screening, mouse beta cells (AID 1625); details: MIN6 insulin promoter-GFP reporter, measured here: cytotoxicity, nuclei count, at 5 µM;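 further: total cells summed across four imaged fields per well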

Row | Structure (SMILES) | cell count
1 | CCN(CC)c1ccc(/C=N/NC(=O)c2cccc(S(=O)(=O)Nc3ccccc3OC)c2)c(O)c1 | 477 cells
2 | CCCN1C(=O)/C(=C/c2c(NCCCOCC)nc3c(C)cccn3c2=O)SC1=S | 983 cells
3 | CCOC(=O)CC1C(=O)NCCN1c1nc2c(C)cccn2c(=O)c1/C=C1\SC(=S)N(CC(C)C)C1=O (centres undefined) | 956 cells
4 | COc1ccc(-c2cn(-c3ccc(Cl)cc3)c3[n+]2CCCCC3)cc1 | 242 cells
5 | CCOC(=O)C1C(=O)C=C(/C=C/c2ccc(N(C)C)cc2)CC1c1ccccc1 (centres undefined) | 1480 cells
6 | CCc1nc(SCC(=O)N2CCOCC2)c2c(=O)n(C)c(=O)n(C)c2n1 | 493 cells
7 | CCN(CC)c1ccc2c(c1)CCCN2 | 340 cells
8 | Cc1ccc(-n2c(-c3ccccc3)c[n+]3c2CCC3)cc1 | 475 cells
9 | Cc1cc(C)c(NC(=O)c2ccc(S(=O)(=O)N3CCOCC3)cc2)c(C)c1 | 355 cells
10 | CCCOc1ccc(C(=O)C(CCC(CNCC)C(=O)c2ccc(OCCC)cc2)CNCC)cc1 (centres undefined) | 155 cells
11 | Cc1c(C(C)C)c(=O)n(-c2ccc(S(=O)(=O)NC3CCCCC3)cc2)n1C | 498 cells
12 | CCn1c(C)nc2cc(C(=O)OC(C(F)(F)C(F)F)C(F)(F)C(F)F)ccc21 | 431 cells
13 | CC(=O)c1ccc2cccc3c2c1N=CN3C | 1530 cells
14 | CCCc1cc(-n2ccnc2)n2c(nc3ccccc32)c1C#N | 1900 cells
15 | CCc1nnc(NC(=O)C(C)Sc2ccccc2)s1 (centres undefined) | 405 cells
16 | Fc1ccc(C2NCCn3cccc32)cc1 (centres undefined) | 1430 cells
17 | COc1ccc(OCc2n(CC(=O)OC3CC(C)CCC3C(C)C)c3ccccc3[n+]2C)cc1 (centres undefined) | 408 cells
18 | CCOC(=O)COc1cccc2c(=O)n(CC(=O)NCCc3ccc(OC)c(OC)c3)ccc12 | 1340 cells
19 | Cn1nc(-c2ccc(Cl)cc2)c2cc(C(=O)N3CCN(c4ccccn4)CC3)sc21 | 415 cells
20 | Cc1ccc(C2CC(C(F)(F)F)n3nc(C(=O)NCc4c(C)nn(C)c4C)c(Cl)c3N2)cc1 (centres undefined) | 289 cells
21 | Nc1ccc(-c2nc3nc(N)nc(N)c3nc2-c2ccc(N)cc2)cc1 | 1330 cells
22 | O=C(CNC(=O)c1ccc(F)cc1)N/N=C/c1cn[nH]c1-c1ccccc1 | 348 cells
23 | Cn1c(=O)c(NC2CCCCC2)c2c3c(cccc31)C(=O)c1ccccc1-2 | 1220 cells

Row | Structure (SMILES) | cell count
24 | CC(=O)Cc1cc(O)c2ccccc2c1OC(=O)c1ccc(Br)cc1 | 1340 cells
25 | CCOC(=O)c1c(NC(=O)CSc2nc3ccccc3s2)sc(C(C)=O)c1C | 310 cells
26 | CC(=O)c1cccc(NC(=S)NCCC2=CCCCC2)c1 | 397 cells
27 | O=Nc1c(O)n(Cc2ccc(Cl)cc2)c2ccccc12 | 1360 cells
28 | CN(C)c1ccc(/C=C/c2cc[n+](C)cc2)cc1 | 494 cells
29 | Cc1cc(N2CCOCC2)nc(NCc2ccccc2)n1 | 454 cells
30 | CNc1nc2cc([N+](=O)[O-])c([N+](=O)[O-])cc2nc1NC | 413 cells
31 | CC(C)C(=O)Nc1ccc(C(=O)N2CCCCCC2)cc1 | 381 cells
32 | Cc1ccc(N2C(=O)C3C(C(=O)c4ccccc4)=NN(c4ccccc4)C3C2=O)cc1 (centres undefined) | 1480 cells
33 | CCc1ccc(NC(=O)c2cc(C(C)C)on2)cc1 | 1410 cells
34 | CCOC(=O)N1CCN(C(=O)CSCc2ccccc2Cl)CC1 | 424 cells
35 | CN(Cc1ccccc1)C1=CC(=[N+]2CCCCC2)CC(C)(C)C1 | 227 cells
36 | N=c1c2c3c(sc2nc2n1CCCCC2)CCCCC3 | 488 cells
37 | CN(C(=O)CSc1cc(C(=O)c2nccn2C)c2ccccc2n1)c1ccccc1 | 195 cells
38 | Cc1[nH]c2ccccc2c1CN1CCc2ccccc2C1 | 445 cells
39 | Cc1ccc(/C=C/C(=O)Nc2ccc([N+](=O)[O-])cc2)o1 | 385 cells
40 | O=[N+]([O-])c1cnc(Sc2ccncn2)s1 | 390 cells
41 | COc1ccc(CN(CC2CCC(C(=O)O)CC2)C(=S)Nc2cccc(C)c2)cc1 (centres undefined) | 1300 cells
42 | CCOC(=O)c1cc2sc(C)cc2n1CC(=O)Nc1cccc(C)c1C | 314 cells
43 | COCCN(CCOC)Cc1cc(=O)oc2cc3c(cc12)CCC3 | 1170 cells
44 | N#CC(C#N)=C1C=C2C=C(N3CCCCC3)CCC2CC1 (centres undefined) | 1280 cells
45 | Cc1c(Cl)cccc1NC(=S)NCc1ccc2c(c1)OCO2 | 381 cells
46 | O=C(/C=C/c1ccc(O)cc1)c1ccc(NC2=C(N3CCCCC3)C(=O)c3ccccc3C2=O)cc1 | 322 cells

Row | Structure (SMILES) | cell count
47 | Cc1ccccc1NC(=O)/C=C/c1ccc([N+](=O)[O-])s1 | 401 cells
48 | O=C(C1CCC(CNS(=O)(=O)c2cccc3cccnc23)CC1)N1CCc2ccccc21 (centres undefined) | 221 cells
49 | Cc1ccc(-n2nc(C)c(NC(=O)CCl)c2C)cc1C | 451 cells
50 | COc1ccccc1-c1n[nH]c2c1[C@H](C)CC[C@H]2C(C)C | 224 cells
51 | c1ccc2c(c1)CSc1sccc1C2=C1CCNCC1 | 470 cells
52 | COc1ccc(NC2=Nc3ccccc3N3C2=Nc2c(c(C)nn2-c2ccc(C)cc2)C3c2cccnc2)cc1 (centres undefined) | 1010 cells
53 | O=C(Sc1cccc2cccnc12)c1ccc(F)cc1 | 474 cells
54 | CCN(CC)CCCC(C)Nc1c2ccc(Cl)cc2nc2ccc(OC)cc12 (centres undefined) | 750 cells
55 | Cc1nc2ccccc2n1-c1nc(-c2ccco2)cc(C(F)(F)F)n1 | 326 cells
56 | Cc1ccc(S(=O)(=O)Cc2ccc(C(=O)NCCCN3CCCC3=O)o2)cc1 | 269 cells
57 | CN1/C(=C\C=N\NC(=O)c2ccc(O)cc2)C(C)(C)c2ccccc21 | 262 cells
58 | Cc1nc2c(-c3ccc(Cl)cc3)c(C)[nH]n2c(=O)c1Cc1ccccc1 | 489 cells
59 | CC(=O)Nc1sc(/C(C#N)=C\c2cccc(Cl)c2)nc1-c1ccc(C)cc1 | 1360 cells
60 | CCCc1nnc(SCc2ccc(OCC)cc2)n1N | 442 cells
61 | CCCCCc1ccc(OCCC[n+]2ccccc2)c(CCCCC)c1 | 345 cells
62 | Cc1ccc(-c2c[n+](Cc3cccc(Cl)c3)c3n2CCC3)cc1 | 467 cells
63 | Cc1[nH]c2ccccc2c1Cc1nnc(SCC(N)=O)o1 | 1950 cells
64 | Cc1nc2ccc(S(=O)(=O)NC(C(=O)Nc3nc4ccc(Cl)cc4s3)C(C)C)cc2s1 (centres undefined) | 311 cells
65 | CCCCOc1ncnc2c1[nH]c1ccc(F)cc12 | 340 cells
66 | CCCCCCCCCCCCCCCC[n+]1cccc2ccccc21 | 479 cells
67 | CCc1ccc(OCC(=O)N/N=C(\C)c2ccccc2OC(F)F)cc1 | 438 cells
68 | Cc1cc2cc(CN(CC3CCCO3)C(=S)Nc3ccccc3)c(=O)[nH]c2cc1C (centres undefined) | 371 cells
69 | COc1ccc(C)cc1NC(=O)CSc1nnc(COc2ccc(Cl)cc2)n1Cc1ccco1 | 279 cells
